# Test results as given in publication PMC6919601, “Identification of Plasmodium dipeptidyl aminopeptidase allosteric inhibitors by high throughput screening” (PLoS ONE, 2019).
# Hit rate of the full screen: of about 110,000 compounds, about 230 (0.21%) showed an effect of 50% or more. This is one part of the list.
# Target: DPAP1 (Plasmodium falciparum, UniProt Q8IIJ9)
# Test: primary screen, percent inhibition; read by cleavage of a fluorogenic dipeptide substrate; higher = more effect of the substance
# Design: species or system P. falciparum D10 trophozoite lysates; single well
# 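Also: 30 min substrate incubation versus DMSO and 10 µM JCP410 controls.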
# Sequence of DPAP1 (Q8IIJ9 whole entry, looked up): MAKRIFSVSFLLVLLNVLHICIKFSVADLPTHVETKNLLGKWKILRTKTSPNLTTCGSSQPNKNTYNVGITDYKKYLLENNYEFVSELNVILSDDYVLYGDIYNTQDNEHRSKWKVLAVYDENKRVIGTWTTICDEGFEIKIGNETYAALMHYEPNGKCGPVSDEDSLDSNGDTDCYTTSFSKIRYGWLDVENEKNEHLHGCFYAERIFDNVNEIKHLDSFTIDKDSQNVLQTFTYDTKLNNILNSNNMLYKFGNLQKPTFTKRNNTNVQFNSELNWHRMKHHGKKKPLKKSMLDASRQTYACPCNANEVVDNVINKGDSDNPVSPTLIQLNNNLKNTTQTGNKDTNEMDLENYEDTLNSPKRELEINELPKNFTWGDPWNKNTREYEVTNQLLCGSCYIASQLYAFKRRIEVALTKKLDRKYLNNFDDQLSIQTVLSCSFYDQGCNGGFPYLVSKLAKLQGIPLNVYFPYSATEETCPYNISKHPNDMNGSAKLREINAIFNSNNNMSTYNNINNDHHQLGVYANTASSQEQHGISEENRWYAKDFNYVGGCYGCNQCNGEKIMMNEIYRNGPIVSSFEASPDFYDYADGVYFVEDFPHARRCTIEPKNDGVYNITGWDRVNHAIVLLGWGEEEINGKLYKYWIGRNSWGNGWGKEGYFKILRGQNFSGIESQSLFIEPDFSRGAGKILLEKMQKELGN
row,Compound,% Inhibition @ 10 uM [%]
1,O=C(NCc1ccccc1)C1Cc2ccccc2CN1S(=O)(=O)c1cccs1 (stereo not shown),-1.52
2,CCCCOc1ccc(C(=O)N/C(=C\c2ccc3c(c2)OCO3)C(=O)OC)cc1,-1.81
3,COc1ccc(CN2CCC(N3CCCCC3)CC2)cc1,-4.6
4,COc1ccc2c(c1OC)C(=O)N(c1cccc(Cl)c1)C2=O,9.75
5,Cc1nc2c(C)cccn2c1C(=O)c1ccccc1,0.66
6,CCOc1ccc2nc(SCC(=O)Nc3ccccc3C(=O)O)sc2c1,-0.305
7,CC12CN3CC(C)(CN(C1)C3C(O)C(O)C(O)CO)C2=O (stereo not shown),-0.712
8,Cc1c(C(=O)N2CCOCC2)oc2c1-c1nn(Cc3ccc(Cl)cc3)cc1CC2,2.73
9,CCOC(=O)N1CCC(NS(=O)(=O)c2ccc3[nH]c4c(c3c2)CCCC4)CC1,-0.35
10,CC(C)c1ccc(NC(=O)c2ccco2)cc1,1.48
11,COc1cc(C2C3=C(O)CC(C)(C)CC3=NC(C)=C2C(=O)N2CCCCC2)cc(OC)c1O (stereo not shown),-1.48
12,CCCCN(CCCNC(=O)c1cc(C)nn1-c1ccccc1)Cc1ccccc1,-0.138
13,CC(C)CC(=O)Nc1nc(-c2ccc(S(=O)(=O)N3CCOCC3)cc2)cs1,-3.65
14,CCOC(=O)C1CCCCN1Cc1ccc(Cl)cc1Cl (stereo not shown),1.55
15,CC(C)(O)C#Cc1ccc(C(=O)N2CCN(c3ccc(Cl)cc3)CC2)cc1,3.65
16,NS(=O)(=O)c1ccc(NC(=S)NC(=O)/C=C/c2ccccc2)cc1,-7.25
17,N#CCC(=O)c1ccc(Br)cc1,0.66
18,CCOC(=O)N1CCC(Nc2ccc(Cl)c([N+](=O)[O-])c2)CC1,-5.44
19,CCOc1cc(C2C3=C(O)CC(C)(C)CC3=Nc3ncnn32)ccc1OC(F)F (stereo not shown),1.73
20,COC1CCCCC1NCCc1cccc(F)c1 (stereo not shown),-9.04
21,Cc1nc2cc(-c3ccccc3)nn2c(C)c1CC(=O)N1CCCCCC1,0.953
22,CCNc1oc(COc2ccc(OC)cc2)nc1C#N,1.35
23,CCN(C(=O)c1ccc(Cl)cc1)c1ccccc1C,-4.3
24,Cc1cccn2c(=O)c3cc(C(=O)NC4CCCC4)n(C)c3nc12,0.522
25,CC(=O)OC1CCC2(C)C(=CCC3C2CCC2(C)C3CC3CCCCC32C(C)=O)C1 (stereo not shown),-5.23
26,CNC(=O)/C(=C\c1ccc2c(c1)OCO2)NC(=O)c1ccc(Br)o1,-0.941
27,C1=Nc2ccccc2-c2ccccc2N1,-0.828
28,Clc1ccc(-c2nc(-c3ccccc3)no2)c(Cl)c1,-3.77
